Experimental data reported in the supplement of paper PMC4604168 (melanoma cell lines).
The other results are listed elsewhere or left out. Single values are uncertain, as repeats are few or missing.

What follows are molecules tested on SkMel5 (assay: cell count relative to DMSO control; melanoma cells; higher = more viable cells). Conditions: library dose: low library concentration; 72 h.
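Note: cell number obtained by counting DAPI-stained nuclei in high-throughput microscope images with image analysis software, screen run in 1,536-well plates.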

Compound	cell count
C[As](C)SC[C@H](NC(=O)CC[C@H](N)C(=O)O)C(=O)NCC(=O)O [Darinaparsin] + O=C(Nc1ccccc1)c1cc([N+](=O)[O-])ccc1Cl [GW9662] (first compound 0.4 µM, partner dose 2 µM)	86.5%
C[As](C)SC[C@H](NC(=O)CC[C@H](N)C(=O)O)C(=O)NCC(=O)O [Darinaparsin] + Cc1cc(SCc2sc(-c3ccc(C(F)(F)F)c(F)c3)nc2C)ccc1OCC(=O)O [GW0742] (first compound 0.4 µM, partner dose 2 µM)	103%
C[As](C)SC[C@H](NC(=O)CC[C@H](N)C(=O)O)C(=O)NCC(=O)O [Darinaparsin] + O=C1NC(=O)/C(=C/c2ccc(-c3ccc(F)cc3O)o2)S1 [AS252424] (first compound 0.4 µM, partner dose 1 µM)	94.6%
C[As](C)SC[C@H](NC(=O)CC[C@H](N)C(=O)O)C(=O)NCC(=O)O [Darinaparsin] + Cn1cc(/C=C2\C(=O)Nc3cccnc32)c2ccccc21 [GW441756] (first compound 0.4 µM, partner dose 0.4 µM)	78%
C[As](C)SC[C@H](NC(=O)CC[C@H](N)C(=O)O)C(=O)NCC(=O)O [Darinaparsin] + COC(=O)c1sccc1S(=O)(=O)Nc1ccc(Nc2ccccc2)cc1OC [GSK0660] (first compound 0.4 µM, partner dose 1 µM)	79.5%
C[As](C)SC[C@H](NC(=O)CC[C@H](N)C(=O)O)C(=O)NCC(=O)O [Darinaparsin] + O=C(Oc1ccc([N+](=O)[O-])cc1)N1CCC(C(O)(c2ccc3c(c2)OCO3)c2ccc3c(c2)OCO3)CC1 [JZL184] (first compound 0.4 µM, partner dose 1 µM)	85.6%
